This note sets out measurements from publication PMC12234955 (Nature Communications, 2025).

In the experiment the target is MB52 (megabody: NB52 VHH fused to the circular permutated extracellular adhesin domain of Helicobacter pylori …). In words: cryo-EM structure.

B1: Human LGR4 ([…]), C-terminal Flag tag (receptor)
chain: not shown
For B1, the binding result is on record as “binds”.
